Screen size: about 310,000 compounds; about 11,000 (3.5%) were called active. The shares of active, inactive and inconclusive entries below differ from those in the screen. Calls follow the shape of the dose curve; as a rule, active = well fitted inhibition curve with a large enough effect; inconclusive = small, poorly fitted or top-dose-only effect, or effect the other way; inactive = flat fitted curve, though single readings scatter. No potency is given beside an inconclusive call; the fits are too rough.
test: VP16 counterscreen qHTS for inhibitors of ROR gamma transcriptional activity; conditions: Drosophila S2 Gal4-VP16 UAS-luciferase, luminescence, 20 h; series mostly up to 53.6 µM;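 also: Gal4-VP16 expression switched on by copper sulfate through the metallothionein promoter; nearly all actives have a fitted effect of over 50% in size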
Excerpt: NIH Molecular Libraries Probe Production Network [MLPCN]
NIH Chemical Genomics Center [NCGC]
Assay Provider: Dan Littman, New York University
The retinoic acid-related orphan receptor (ROR) gamma is a transcription factor that has a central role in the differentiation of Th17 cells, a subset of T helper cells that secrete the inflammatory cytokines IL-17, IL-17F, and IL-22. Th17 cells have been implicated in graft versus host disease, autoimmune disease and asthma. ROR gamma is induced in naive T helper cells in the presence of TGF-beta combined with IL-6, IL-21, or IL-23, and thereafter directs the expression of the Th17 lineage cytokines. To identify nonspecific inhibitors, a Drosophila Schneider cell line was stably transfected with two vectors: a gene expressing a fusion of the Gal4 DNA binding domain and VP16 transactivation domain under the control of the metallothionine promoter and a Photinus luciferase reporter regulated by the Gal4 binding site enhancer, UAS. […] Small molecule inhibitors that inhibit components common to the RORgt and VP16 assays, such as the Gal4 DNA binding domain or the UAS luciferase reporter, will be active in both assays and thus scored as nonspecific.
For screening, 600 cells in 4 uL/well were dispensed into white solid 1536-well plates (Grenier) using a solenoid-based dispenser. Following transfer of 23 nL compound or DMSO vehicle by a pin tool, the plates were incubated 1 hr at ambient temperature, and 1 uL/well copper sulfate (700 uM final concentration) was added. The plates were centrifuged 15 s at 1000 RPM and incubated 20 hr at ambient temperature. After addition of 1.5 uL Photinus luciferase detection reagent, the plates were incubated 10 min at ambient temperature and then read by a ViewLux (Perkin Elmer) to detect luminescence.
Potency is read from the fitted curve at half-maximal effect; tags tell the direction and shape of the fitted curve.

Compound	Potency
O=S(=O)(Nc1cccnc1)c1cccs1	inconclusive [inhibitor, partial curve, poor fit]
Cc1ccc(S(=O)(=O)c2cc3cc(Br)ccc3oc2=O)cc1	inactive
O=C1CCN(CCc2ccccc2)CCN1C(CSc1ccc(Br)cc1)c1ccccc1 (stereo not given)	inactive
O=C(NC(=S)Nc1cccc(Cl)c1N1CCCCC1)c1ccc2c(c1)OCCO2	active: 4.47 µM
O=C(NCc1ccncc1)C(=O)NCC1OCCN1S(=O)(=O)c1ccc(F)cc1 (stereo not given)	inactive
Cc1c(Cl)cccc1NC(=O)c1ccco1	inconclusive [activator, single point]
Cc1ccc(C(=O)N2CCN(c3ccc(NC(=S)NC(=O)c4cccs4)cc3)CC2)cc1	active: 11.2 µM
CC(=O)Oc1ccc2c(c1)OC(c1ccccc1)CC21CC(C)(C)NC(=S)N1 (stereo not given)	inconclusive [inhibitor, single point]
Cc1c(NC(=S)N/N=C/c2ccc(Br)cc2)c(=O)n(-c2ccccc2)n1C	inconclusive [inhibitor, partial curve]
CCNc1ccc(S(=O)(=O)N(C)C)cc1NCC(=O)Nc1ccc(F)c(Cl)c1	inconclusive [inhibitor, single point]
CCOC(=O)CC(NC(=O)c1cc2cccc(OC)c2oc1=O)c1cccc([N+](=O)[O-])c1 (stereo not given)	inactive
CC(C(=O)NC1C=CS(=O)(=O)C1)N1C(=O)/C(=C/c2ccc(Cl)cc2)SC1=S (stereo not given)	inconclusive [inhibitor, single point]
Cn1c(/C=N/c2nc3ccccc3[nH]2)nc2ccccc21	inconclusive [inhibitor, single point]
C/C(=N\Nc1ccc(S(N)(=O)=O)cc1[N+](=O)[O-])c1ccc2c(c1)OCO2	active: 11.2 µM
O=C(O)c1cccc(CSc2nnc(-c3ccco3)o2)c1	inconclusive [inhibitor, partial curve]
CCOC(=O)c1ccc(NC(=O)c2ccc(OC(C)C)c(OC)c2)cc1	inactive
CCOCCCn1c(=S)[nH]c2cc(C(=O)NCCc3ccccc3)ccc2c1=O	inactive
O=C1c2ccc3c4c(ccc(c24)C(=O)N1c1cccc(O)c1)C(=O)N(c1cccc(O)c1)C3=O	inconclusive [inhibitor, single point]
CC(C)C[C@H](NC(=O)c1nc[nH]c1C(=O)NC(c1ccccc1)c1ccccc1)C(=O)OCc1ccccc1	active: 4.47 µM
CCOC(=O)C1CCN(S(=O)(=O)c2cccc(-c3cn4cccc(C)c4n3)c2)CC1	inactive
O=C(O)C/C=C(/NC(=O)OCc1ccccc1)C(=O)OCc1ccccc1	inactive
Cc1cccc(Nc2nc(-c3ccccn3)cs2)n1	active: 2.51 µM
O=C(NCCCN1CCN(c2cccc(Cl)c2)CC1)c1nc(-c2ccncc2)no1	inactive
COc1ccc(-n2c(C)nc3c(cnn3-c3ccccc3)c2=O)cc1	inconclusive [inhibitor, single point]
c1ccc(-c2onc(-c3ccco3)c2-c2ccc3c(c2)OCO3)cc1	inactive

Compound	Potency
CCCC1(C)Nc2ccccc2-c2nc3ccccc3n21 (stereo not given)	inactive
COc1ccc(Nc2nc(-c3cccc([N+](=O)[O-])c3)nc3ccccc23)cc1	inconclusive [inhibitor, single point]
Cc1ccsc1/C=N/NC(=O)c1ccccn1	inconclusive [inhibitor, single point]
Cc1cccc(C)c1NC(=O)C1CCCN1S(=O)(=O)c1ccccc1 (stereo not given)	inactive
CC(Oc1ccc(Br)cc1)C(=O)Nc1ccncc1 (stereo not given)	inconclusive [inhibitor, single point]
CCc1nnc(NC(=O)CCC(=O)N2CCN(Cc3ccc(OC)c(F)c3)CC2)s1	inactive
CC(C)(C)NC(=S)N/N=C/c1cc(Br)c(O)c(Br)c1	inconclusive [inhibitor, single point]
CCN(Cc1nc2ccccc2n1C)c1ccccc1	inconclusive [inhibitor, single point]
CCc1ccc(-c2ccc(SCc3ccccn3)nn2)cc1	inconclusive [activator, full curve]
COc1ccc(C(=O)CC(=O)C(=O)Nc2cc(OC)ccc2OC)cc1	inactive
Cc1ccc(C)c(C(=O)CSc2nc(N)cc(=O)[nH]2)c1	inactive
CC[n+]1c(/C=C/N(C)c2ccccc2)oc2ccc(F)cc21	inconclusive [inhibitor, single point]
COc1cc2cc(CN(CCc3cccc(C)c3)C(=S)NCCCN3CCOCC3)c(=O)[nH]c2cc1OC	inconclusive [inhibitor, single point]
COc1ccc(-c2coc3c(CN4CCCCC4)c(O)c(CN4CCCCC4)c(O)c3c2=O)cc1	inconclusive [inhibitor, single point]
O=C(/C=C\Nc1ccc2c(c1)OCO2)c1ccc2c(c1)OCO2	inconclusive [inhibitor, partial curve, poor fit]
CC(C)C(=O)NC(=S)Nc1c(Cl)ccc2nsnc12	inactive
COc1ccc2nc(SCc3cccc(C)c3)nc(C)c2c1	inactive
O=C(CNC(=O)c1ccc(F)cc1)N/N=C/c1cc(Br)ccc1OC(=O)/C=C/c1ccco1	inconclusive [inhibitor, single point]
N#Cc1nc(COc2ccccc2)oc1NCCN1CCOCC1	inactive
C/C(=N\NC(=O)c1nnn(-c2nonc2N)c1-c1ccc(Cl)c(Cl)c1)c1ccncc1	inactive
Cc1sc(-n2c(C)cc(/C=N/n3cnnc3)c2C)c(C#N)c1C	inconclusive [inhibitor, single point]
O=C(Nc1nc(-c2ccccn2)cs1)c1ncc(Cl)c(Cl)c1Cl	active: 10 µM
CC1=Nc2ccccc2/C1=C\c1nc(-c2ccc(F)cc2)oc1O	inactive
Cc1cccc(C(=O)NCc2nnc(SCC(=O)NC3=NCCS3)n2C)c1	inconclusive [inhibitor, single point]
Cc1ccsc1/C=N/NC(=O)C(N)=O	inconclusive [activator, single point]

Compound	Potency
CC1CCC2(CC1)C(Nc1cccc(Cl)c1)=NC(=S)N2CC#N (stereo not given)	active: 3.16 µM
CCC(C)[C@H](NS(=O)(=O)c1ccc(C)cc1)C(=O)N1CCC(C(=O)N2CCC(C(=O)OC)CC2)CC1 (stereo not given in full)	inactive
Cc1cc(C(=O)NC2CCCc3c2cnn3-c2ccc(C(C)(C)C)cc2)n[nH]1 (stereo not given)	inconclusive [inhibitor, single point]
CCOC(=O)c1cc2c(C)n(-c3ccc(C)cc3)c(C)c2ccc1=O	active: 10 µM
COC(=O)c1ccc(C(NC(=O)OCc2ccccc2)/C(=C/[C@@H](C)C(=O)NCc2cc(C)on2)c2cccnc2)cc1 (stereo not given in full)	inactive
COCCCn1c(SCC(=O)OC2CCCCC2)nnc1-c1ccco1	inactive
Fc1ccc(Cn2cc(C(=S)N3CCOCC3)c3ccccc32)cc1	inconclusive [inhibitor, single point]
CCCCOc1cccc(C(=O)NC(=S)Nc2cccc(NC(=O)c3ccccc3Cl)c2)c1	inconclusive [inhibitor, partial curve, poor fit]
COc1ccc(O)c(/C=N\NC(=O)CCn2nnc3ccccc32)c1	active: 2.82 µM
COc1ccc(CN2CCC(C(=O)Nc3ccc(Oc4cccnc4)cc3)CC2)c(C)c1C	inconclusive [inhibitor, single point]
CCCn1c(CN(Cc2ccccc2)Cc2ccccc2)nc2c1c(=O)n(C)c(=O)n2C	inconclusive [inhibitor, single point]
CSc1c(SCc2ccccc2)cnn(-c2ccccc2)c1=O	inconclusive [inhibitor, single point]
CCOC(=O)c1ccc2c(c1)nc(SC/C(O)=C(\C#N)c1nc3ccccc3[nH]1)n2CC	inactive
Cc1ccc(NC(=S)NCc2ccc3c(c2)cc(C)n3C)c(C)c1	active: 12.6 µM
CCOC(=O)Cc1csc(NC(=O)/C=C/c2ccc(OC)cc2)n1	inconclusive [inhibitor, single point]
Cc1csc(NC(=O)c2cc([N+](=O)[O-])cc([N+](=O)[O-])c2)n1	active: 2 µM
CNc1nc(-c2ccccc2)[n+](-c2ccc(C)cc2)s1	active: 7.08 µM
Cc1cc(C(=O)NC(=S)Nc2ccccc2N2CCCC2)ccc1[N+](=O)[O-]	active: 3.16 µM
Cc1ccc(C)n1-c1ccc(N2CCOCC2)nc1	inconclusive [inhibitor, single point]
COc1cccc(/C=N/NC(=O)c2ccncc2)c1OC(=O)c1ccc(Br)cc1	active: 11.2 µM
CCOC(=O)c1sc2nc(NC(=O)C(C)(C)C)sc2c1C	inconclusive [inhibitor, single point]
COc1ccc(O)c(C2=Nc3ccccc3N=C(c3cccs3)C2)c1	inconclusive [inhibitor, single point]
COc1ccc(-c2[nH]ncc2/C=N\NC(=O)c2ccc(Br)o2)cc1OC	inactive
CCOC(=O)C/C(C)=N/NC(=O)CN(c1ccc(Br)cc1)S(=O)(=O)c1ccccc1	inconclusive [activator, single point]
O=C(COC(=O)C1(c2ccc(F)cc2)CCCC1)NCc1ccc2c(c1)OCO2	inconclusive [inhibitor, single point]
